Assay results published in PubChem BioAssay AID1508623 (National Center for Advancing Translational Sciences (NCATS), 2021).
Hit rate of the full screen: of about 48,000 compounds, about 450 (0.94%) were called active. Inconclusive results (about 19%) are left out. Calls come from the whole dose curve; as a rule, active = well fitted inhibition curve with a large enough effect; inconclusive = small, poorly fitted or top-dose-only effect; inactive = no such curve, though single readings can be large or run the other way. Some of the results follow.

Assay: Primary qHTS for Identification of Small Molecule Inhibitors of Huntingtin Promoter Activity; note: nearly all actives have a fitted effect of over 50% in size
Settings: HEK293 HTT promoter firefly luciferase reporter (activity 0% = vehicle and -100% = no light), 24 h; series mostly up to 57.5 µM; activity change, negative = inhibition: at the top concentration
Method in brief: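 Firefly luciferase signal from promoter-reporter HEK293 cells was scaled between vehicle (0%) and zero RLU (-100%). Compounds were tested at final concentrations of up to 57.5 uM over 24 h at 37 degrees C. PTC124 at 50 uM final served as control inhibitor.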
Potency is the fitted concentration of half-maximal effect.

Activity change, negative = inhibition, inactive:
COc1ccccc1-c1nc2n(n1)C(c1ccccc1Cl)C(C(=O)Nc1cccnc1)=C(C)N2 (centres undefined) -10.8%
CCCCn1cc(S(=O)(=O)c2ccc(C)cc2)c(=O)c2cc(F)c(N3CCCCC3)cc21 -2.28%
Cc1cc(O)c(C(c2ccccc2)N2CCCCC2)c(=O)n1Cc1ccco1 (centres undefined) -6.25%
CCOc1ccccc1NC(=O)CSc1nnc2[nH]c(=O)cc(C)n12 -5.61%
COCCCNC(=O)C1CCN(Cc2cc3ccccc3n2Cc2ccccc2C)CC1 -14.2%
COc1ccc(NC(=O)c2c(NCc3cccs3)sc3c2CCC(C)C3)c(OC)c1 (centres undefined) -12%
CCCCCN(CCCOC)C(=O)C(CCC(=O)O)NC(=O)c1ccc(Cl)c(Cl)c1 (centres undefined) 7.67%
Cc1c(C(=O)N(Cc2ccccc2F)C2CCS(=O)(=O)C2)oc2ccccc12 (centres undefined) -10.7%
Cc1nn(C)c2c1c(C(F)(F)F)cc(=O)n2C(C)C(=O)Nc1ccccc1F (centres undefined) -38.3%
COc1ccc(-c2nnc(SCC(=O)Nc3cccc(C(F)(F)F)c3)s2)cc1 -13.7%
COc1ccc(S(=O)(=O)NCC(c2cccs2)S(=O)(=O)c2ccccc2)cc1OC (centres undefined) -16%
CC(=O)N1CCc2cc(Br)cc(S(=O)(=O)CCC(=O)N3CCN(c4ccc(F)cc4)CC3)c21 -6.2%
COc1cc(/C=C/c2nc(C#N)c(N3CCN(C)CC3)o2)cc(OC)c1OC -7.79%
COc1ccc(NC(=O)COCc2cc(-c3ccc4c(c3)OCO4)on2)cc1 -0.766%
COc1cccc(NS(=O)(=O)c2ccc3c(c2)n(C)c(=O)n3C)c1 -32%
CSc1cccc(NC(=O)C2CCN(c3nc4ccccc4[nH]3)CC2)c1 -4.81%
Cc1c(-c2nc(-c3ccccc3)no2)nnn1-c1ccc(F)c(Cl)c1 43.6%
CCc1ccc(NC(=O)Cn2c(=O)n(-c3ccc(Cl)c(Cl)c3)c(=O)c3c(C)c(C)sc32)cc1 -7.01%
COc1ccc(Cl)c2sc(NC(=O)c3ccc(S(=O)(=O)N4CCOCC4)cc3)nc12 3.08%
CCCC(CCC)C(=O)Nc1cc(-c2cn3cccnc3n2)ccc1OC -6.67%
CCc1ccc(N2C(=O)CSC23C(=O)N(Cc2ccc(C)cc2)c2ccccc23)cc1 (centres undefined) -19.7%
COc1ccc(S(=O)(=O)c2c(C)c(NS(=O)(=O)c3ccccc3)cc(C)c2O)cc1 -19.8%
O=C(CSc1nc2c(c(=O)[nH]1)CCC2)Nc1ccccc1C(F)(F)F -19.6%
COc1ccc(Cn2cc(C(=O)c3ccc(C)cc3)c(=O)c3cc(OC)c(OC)cc32)cc1 -8.09%
O=C(NCN1CCOCC1)c1cnccn1 -11.5%
O=C(c1ccc2c(c1)CCCC2)N1CCN(c2nc3c(F)cccc3s2)CC1 -9.46%
COc1cc(C(c2c(C)[nH][nH]c2=O)c2c(C)[nH][nH]c2=O)ccc1OC(=O)c1cccc(C)c1 0.52%
CCn1cc(C(=O)NCc2ccccc2)c(=O)c2cc(S(=O)(=O)N3CCc4ccccc4C3)ccc21 -11.8%
CCOC(=O)C1CCCCN1S(=O)(=O)c1csc(C(N)=O)c1 (centres undefined) -12.7%
Cc1ccc(C2=CC(c3ccccc3F)n3c(nc4ccccc43)N2)cc1C (centres undefined) -1.28%
CN(C)c1ccc(-n2c(CCC(=O)O)ccc2-c2ccccc2)cc1 -6.17%
COc1ccc(CC(=O)NCc2ccc3c(c2)CCN3C(=O)c2ccccc2)cc1OC -11.3%
COc1ccc(C2=NC(c3ccncc3)=Nc3ccc(Br)cc3N2)cc1 -9.71%
CCn1cc(C(=O)N2CCN(c3ccc(F)cc3)CC2)c(=O)c2cc(S(=O)(=O)N(C)C3CCCCC3)ccc21 -7.79%
CCOC(=O)C1=C(CN2CCCCC2)NC(=O)NC1c1cc(C)ccc1C (centres undefined) -17.9%
COc1cc(Cl)c(C)cc1NC(=O)c1cc2c(Cl)nc3ccc(C)cc3c2s1 -3.96%
Cc1cccc(-c2nc3c(c(SCc4ccccc4Cl)n2)Cc2c(CO)cnc(C)c2O3)c1 -12.9%
CCOc1ccccc1NC(=O)c1c(NC(=O)C(C)Oc2ccc(Cl)cc2)sc2c1CCCCC2 (centres undefined) -19%
CCNC(=O)c1cnc2c(-c3ccccc3)c(C)nn2c1C -9.34%
CNC(=O)CN1C(=O)c2cccnc2Sc2ccccc21 -4.06%
CC(C)CC1N=C2c3ccccc3N=C(SCC(=O)NCCc3ccc(Cl)cc3)N2C1=O (centres undefined) -9.89%
CC(C)CCn1c(=O)c2sccc2n2c(CCCC(=O)NC(C)C)nnc12 -14.6%
COc1ccc(-c2nc3cc(C)ccn3c2NC(=O)c2ccc(C)c(C)c2)cc1 -2.96%
COc1ccc(-n2c(=O)c3c4c(sc3n(Cc3ccccc3Cl)c2=O)CCC4)c(OC)c1 -14.1%
Cc1cccc(OCC(=O)Nc2ccccc2OCc2cc(=O)n3ccccc3n2)c1 2.48%
COc1cccc(CNC(=O)CN(C)S(=O)(=O)c2ccc3[nH]c4c(c3c2)CCCC4)c1 -18.7%
CCOc1ccccc1CNC(=O)C1CCCN(c2ncnc3onc(-c4ccc(F)cc4)c23)C1 (centres undefined) -5.72%
COc1cccc(-c2cc(C(F)(F)F)nc(NCCc3ccccc3)n2)c1 14.3%
Cc1cccc(C)c1-n1ncc(C(=O)Nc2ccc3c(c2)OCO3)c1C1CCN(C(=O)OC(C)(C)C)CC1 -11.3%
COc1ccccc1CCNC(=O)c1ccc2c(c1)c(C)c(C)n2Cc1ccc(Cl)cc1 -29.6%
O=C(O)Cn1c(=O)n(Cc2ccc(Br)cc2F)c(=O)c2ccc(Cl)cc21 -2.35%
Cc1ccc2c(c1)-c1nc(-c3ccc4c(c3)NC(=O)CO4)cc(-c3ccc(F)cc3)c1CO2 -12.5%
Cc1nc2c(C(=O)NCCc3ccc(Cl)cc3)c[nH]n2c(=O)c1Cc1ccc(Cl)cc1 -27.4%
O=C(CSc1nnc(-c2ccc(O)cc2)o1)c1ccc(Br)cc1 -14%
COc1ccccc1C(=O)Nc1c(C(=O)N(C)Cc2ccccc2)sc2nc(C)c(Cl)c(C)c12 -29.6%
COc1ccc(-c2noc(-c3ccc(N4CCN(C)CC4)c([N+](=O)[O-])c3)n2)cc1OC 29.4%
Cc1cc(Br)ccc1NC(=O)C1CCN(S(=O)(=O)c2cccc3nsnc23)CC1 -17.2%
Cc1ccccc1-c1nnc(CN2CCN(c3ccccn3)CC2)o1 -27.5%
CCOC(=O)c1ccc(NC(=O)N2CCOc3ccccc32)cc1 55.4%
COCCCNC(=O)C(=O)Nc1c2c(nn1-c1cccc(Cl)c1)CSC2 -34.3%
CNC(=O)Cn1cc(S(=O)(=O)Cc2ccccc2F)c2ccccc21 -0.576%
Cc1nn(C(=O)c2ccccc2F)c(C)c1S(=O)(=O)N1CCCCCC1 -6.71%
COc1ccc(-c2oc3ncn4nc(COc5c(C)cccc5C)nc4c3c2-c2ccc(OC)cc2)cc1 -6.75% [at 11.5 µM]
CCOc1ccccc1NC(=O)N1CCc2cc(S(=O)(=O)N3CCC(C)CC3)ccc21 -11.6%
Cc1cccc(NC(=O)c2sc(-n3nc(C)c(Cc4ccc5c(c4)OCO5)c3C)nc2C)c1C -8.31%
COc1ccc(-c2cc(C)no2)cc1S(=O)(=O)NC(C)C -18.4%
COc1cccc(NC(=O)N2CCN3CCCCC3C2)c1 (centres undefined) -0.831%
CCCOC(=O)CSc1ncnc2sc3c(c12)CCC(C)C3 (centres undefined) 54.3%
COc1cc(OC)cc(N2C(=O)N(CC(=O)c3ccc(F)cc3)c3ccccc3S2(=O)=O)c1 -8%
COc1ccc(-c2noc(Cn3c(=O)c4ccccc4n(CC(=O)Nc4cccc(OC)c4)c3=O)n2)cc1 -29.4%
COc1ccccc1NC(=O)c1sc2nc(N3CCOCC3)c3c(c2c1N)CC(C)(C)OC3 -0.204%
Cc1ccc(NC(=O)CSc2ncc3c(n2)-c2ccc(Cl)cc2N(C)S3(=O)=O)cc1F -23.1%
CCOC(=O)c1ccc(NC(=O)c2oc(=O)c3ccccc3c2-c2ccccc2)cc1 -7.21%
Cc1cccc(Cn2c(=O)n(CC3CCC(C(=O)N4CCOCC4)CC3)c(=O)c3sccc32)c1 (centres undefined) -27.2%
COc1ccccc1-c1nc2c(c(SCC(=O)Nc3c(C)cc(C)cc3C)n1)Cc1c(CO)cnc(C)c1O2 -14.3%
CCC(=O)N1CCc2cc(S(=O)(=O)CCC(=O)NCc3ccc(C)cc3)ccc21 3.56%
CCOC(=O)c1c(NC(=O)c2cc3nc(-c4ccc(OC)cc4)cc(C(F)(F)F)n3n2)sc2c1CCC(C)C2 (centres undefined) -9.53%
CCc1cccc(NC(=O)C(Cc2ccccc2)NS(=O)(=O)c2ccc3c(c2)oc(=O)n3C)c1 (centres undefined) -25.7%
CCc1cccc(NC(=O)c2cc3c(=O)n(Cc4ccc(OC)cc4)ccc3nc2C)c1 -26.1%
CCCSc1nnc2c(n1)OC(c1sccc1C)Nc1ccccc1-2 (centres undefined) 49.3%
CCOc1ccc(CCNC(=O)c2ccc(Nc3nc4ccccc4n4nnnc34)cc2)cc1OCC 1.24%
CCOC(=O)c1ccc(NC(=O)c2c(N3CCCC3=O)c3cc(OC)ccc3n2C)cc1 -39.3%
Cc1c(Cl)cccc1NC(=O)CN1C(=O)COc2ccc(S(=O)(=O)N3CCOCC3)cc21 -0.644%
CCc1ccc(Cn2c(CNS(=O)(=O)c3ccc(F)c(Cl)c3)nc3cccnc32)cc1 -14%
CC(=O)N1CCCC1c1nc2ccccc2n1Cc1ccccc1 (centres undefined) -6.36%
CC(=O)N1CCc2cc(S(=O)(=O)NC(Cc3ccccc3)C(=O)Nc3cccc(C)c3)ccc21 (centres undefined) -32%
Oc1c(C(c2ccc(F)cc2)N2CCOCC2)sc2nc(-c3ccco3)nn12 (centres undefined) 19.3%
O=C(Cn1ncc2c([nH]c3ccccc32)c1=O)Nc1cccc(C(F)(F)F)c1 3.15%
CCc1ccc(-n2c(=O)c3c4c(sc3n(Cc3ccc(C)cc3)c2=O)CCC4)cc1 -11.4%
Cc1cc(C)cc(N2CC(c3nc(-c4cccc(Cl)c4)no3)CC2=O)c1 (centres undefined) -31.8%
Cc1ccccc1CN1c2ccccc2S(=O)(=O)c2ccccc21 0%
O=C1C(Nc2ccccc2)=CC(c2ccc(Br)cc2)N1c1ccccc1 (centres undefined) 30%

Potency, active:
COc1ccccc1N1CCN(C(CNC(=O)C(=O)NCc2ccc(C)cc2)c2cccnc2)CC1 (centres undefined) 11.2 µM
Cn1nnnc1SCCCNCc1ccccc1OCc1ccccc1Cl 14.1 µM
